Laboratory results from PubChem BioAssay AID686979 (National Center for Advancing Translational Sciences (NCATS), 2013).
Where “and” joins values, the source holds several entries; their conditions need not be identical. Equal values may be shown once. The whole screen tested about 420,000 compounds, of which about 50,000 (12%) were called active. The inconclusive results got no clear call from the source; some entries with a clear call stand among them for comparison. Calls follow the shape of the dose curve; as a rule, active = well fitted inhibition curve with a large enough effect; inconclusive = small, poorly fitted or top-dose-only effect; inactive = flat fitted curve, though single readings scatter. Potencies of inconclusive entries are left out as doubtful fits.

Assay: qHTS for Inhibitors of human tyrosyl-DNA phosphodiesterase 1 (TDP1): qHTS in cells in presence of CPT; also: nearly all actives have a fitted effect of over 55% in size
Details: chicken DT40 Tdp1-/-;hTDP1 cells + 20 nM CPT, ATP luminescence, 48 h; activity change, negative = growth inhibition: at 46.2 µM (top of the series) unless noted
In short: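 Chicken DT40 Tdp1-/- cells stably complemented with human TDP1 were seeded at 400 cells/well in medium containing 20 nM camptothecin, exposed to pin-transferred compounds, and grown at 37 °C for at least 48 hr. Viability was read as ATP luminescence.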
% is scaled to controls: 0 for no effect and ±100 for the full control effect; potency is read from the fitted curve at half-maximal effect; tags tell the direction and shape of the fitted curve.

Row | SMILES | Potency | activity change, negative = growth inhibition
1 | CCOc1ccccc1NC(=O)CN1C(=O)COc2ccc(S(=O)(=O)N3CCCCC3)cc21 | active: 20.6 µM | 
2 | COc1cc(NCc2ccccc2)c2ncn(C(C)C)c2c1 | inconclusive [inhibitor, single point] | 
3 | O=C(c1ccc(Br)s1)N(Cc1cccnc1)c1nc2ccc(F)cc2s1 |  | inactive: -28.4%
4 | CCN1C(=O)CC(C(=O)Nc2ccc(F)cc2)SC1=Nc1cccc(OC)c1 (centres undefined) | inconclusive [inhibitor, single point] | 
5 | COc1ccc2c(c1OC)C(=O)N1c3ccccc3C(=O)N(c3ccccc3)C21 (centres undefined) | active: 11.6 µM | 
6 | C[C@@]12C(=O)N(Cc3ccc(-c4ccccc4)cc3)CC(=O)N1[C@H](/C=C/c1ccccc1)[C@@H]1C(=O)N(c3ccccc3)C(=O)[C@@H]12 | inconclusive [inhibitor, single point] | 
7 | CCCn1nc([N+](=O)[O-])c(C(C#N)c2nc3ccccc3s2)c(Cl)c1=O (centres undefined) | active: 18.4 µM | 
8 | CC(C)C(=O)N1CCN(c2ccc(NC(=O)c3cccs3)cc2Cl)CC1 | active: 23.1 µM | 
9 | CCOc1ccc(C(=O)CC(C(=O)O)N2CCCCC2)cc1 (centres undefined) | active: 13 µM | 
10 | Cc1cc(-c2ccc(C(C)C)c(S(=O)(=O)N3CCC(C)CC3)c2)on1 | active: 25.9 µM | 
11 | CCOc1cccc(NC(=O)C2CC(=O)N(C)C(=Nc3ccc(F)cc3)S2)c1 (centres undefined) | inconclusive [inhibitor, single point] | 
12 | CCOc1cc(CN2CCCC(N3CCc4ccccc4C3)C2)ccc1O (centres undefined) | inconclusive [inhibitor, single point] | 
13 | O=C(O)c1ccc2c(c1)C(=O)N(Cc1ccco1)C2=O |  | inactive: -1.37%
14 | COc1ccc(/C=N/NC(=O)CSc2ccccn2)cc1OC |  | inactive: 12.1%
15 | O=C(CSc1nc2ccccc2[nH]1)Nc1ccc2c(c1)OCCO2 | inconclusive [inhibitor, single point] | 
16 | CCCc1cc(=O)oc2cc(OCC(=O)NCCc3c[nH]c4ccc(OC)cc34)ccc12 | active: 16.4 µM | 
17 | Cn1c(=O)c(NC2CCCCC2)c2c3c(cccc31)C(=O)c1ccccc1-2 | inconclusive [inhibitor, partial curve] | 
18 | O=c1c(Cl)c(N2CCN(c3ccc(F)cc3)CC2)cnn1-c1nc2ccccc2s1 | inconclusive [inhibitor, single point] | 
19 | CCn1cc(SCC(=O)NC2CCCC2)c2ccccc21 |  | inconclusive: -31% [inhibitor]
20 | COc1ccc(F)c(CN(C)CC2CCCN(CCc3ccc(F)cc3)C2)c1 (centres undefined) | inconclusive [inhibitor, single point] | 
21 | COc1cccc(CNC(=S)Nc2ccc3c(c2)c(=O)n(C)n3C)c1 |  | inactive: -2.87%
22 | COc1cccc(C(=O)N/N=C(\CC(C)C)c2ccccc2)c1 |  | inconclusive: -32.9% [inhibitor]
23 | CCOC(=O)n1c(=O)n(Cc2ccc(OC)cc2)c2ccccc21 | inconclusive [inhibitor, single point] | 

Row | SMILES | Potency | activity change, negative = growth inhibition
24 | CCc1nn2c(=O)cc(COc3cccc(NC(=O)c4ccco4)c3)nc2s1 | active: 20.6 µM | 
25 | CCc1nc2c(OCCc3cccc(OC)c3)cccn2c1N(C)C(=O)c1ccc(C)cc1 | inconclusive [inhibitor, single point] | 
26 | CCOC(=O)C1=C(C)N=c2s/c(=C\c3ccc(C(=O)O)cc3)c(=O)n2C1c1ccc(F)cc1 (centres undefined) |  | inactive: -11.3%
27 | CC(C)(C)c1ccc(CCC2OCC(C[N+]3(C)CCOCC3)O2)cc1 (centres undefined) | active: 1.84 µM | 
28 | Cc1cc(=O)oc2cc(OCCSCCN3CCOCC3)ccc12 |  | inactive: -29.5%
29 | CCn1c(=O)n(CC(=O)N(C)Cc2ccccc2)c(=O)c2ccccc21 | inconclusive [inhibitor, partial curve] | 
30 | O=C(CCCN1C(=O)/C(=C\c2ccccc2)SC1=S)Nc1ccc(O)cc1 | inconclusive [inhibitor, single point] | 
31 | CC(C)(C)c1ccc(-c2nnc(SCC(=O)NC3CC3)o2)cc1 | inconclusive [inhibitor, single point] | 
32 | CCN1CCN(Cc2ccc(NC(=O)c3ccc(C)c(NC(=O)c4nccnc4N)c3)cc2C(F)(F)F)CC1 | inconclusive [inhibitor, partial curve] | 
33 | COC(=O)COc1ccc(S(=O)(=O)NCCC2=CCCCC2)cc1C | inconclusive [inhibitor, partial curve, poor fit] | 
34 | O=C(CN1CCC(NC(=O)Nc2ccccc2)CC1)Nc1cccc([N+](=O)[O-])c1 |  | inactive: 6.65%
35 | Cc1ccc(C(C)C)cc1OCC(=O)Nc1ccc(-n2cnnn2)cc1 |  | inactive: -12.7%
36 | O=C(CN1CCN(S(=O)(=O)c2ccccc2)CC1)Nc1ccccc1C(=O)c1ccccc1 | inconclusive [inhibitor, single point] | 
37 | O=C(NCCC1=CCCCC1)C1CCCN(c2nc3ccccc3o2)C1 (centres undefined) | inconclusive [inhibitor, single point] | 
38 | CN(CC(=O)Nc1ccccc1Br)Cc1nc2ccccc2c(=O)[nH]1 | inconclusive [inhibitor, single point] | 
39 | Cc1ccc(CNC(=O)C2CCN(S(=O)(=O)c3c(C)noc3/C=C/c3c(C)cc(C)cc3C)CC2)cc1 | inconclusive [inhibitor, single point] | 
40 | CC1CCCC2(C1)NC(=S)c1c(sc3c1CCCC3)N2 (centres undefined) | inconclusive [inhibitor, single point] | 
41 | Cc1cc(C)c(OCCCCCNCCO)c(C)c1 | inconclusive [inhibitor, single point] | 
42 | Cc1cc(C)c2nc(/N=C(\N)NC(=O)c3ccccc3)nc(C)c2c1 |  | inactive: -24.1%
43 | O=C1CSC(=S)N1/N=C/c1c(F)cccc1F | inconclusive [inhibitor, single point] | 
44 | Cc1ccc2nc(COc3ccccc3NC(=O)COc3ccccc3Cl)cc(=O)n2c1 |  | inactive: -5.17%
45 | O=[N+]([O-])c1cccc(NC2=NCCC2)c1 |  | inactive: -8.61%
46 | CCN(c1ccc(NC(=O)c2ccc(Cl)nc2)cc1)C(C)C | inconclusive [inhibitor, single point] | 

Row | SMILES | Potency | activity change, negative = growth inhibition
47 | Cc1cc(C)n(-c2ccc(C(=O)Nc3cc(S(=O)(=O)N(C)C)ccc3Cl)cc2)n1 | active: 16.4 µM | 
48 | Cc1cc(C(=O)CN2C(=O)C(=O)N(C3CCCC3)C2=O)c(C)n1CCc1ccc(F)cc1 | active: 18.4 µM | 
49 | CCOC(=O)c1c(C)oc2nc(C)nc(N3CCN(c4ccc(OC)cc4)CC3)c12 | active: 7.31 µM | 
50 | CCOC(=O)C1(CCOc2ccccc2)CCN(Cc2ccc(OCC)c(CO)c2)CC1 | active: 14.6 µM | 
51 | CCOc1ccccc1CNC(=O)CCCN1C(=O)c2cccnc2Oc2ccc(Cl)cc21 | inconclusive [inhibitor, single point] | 
52 | O=c1cc(CN2CCN(S(=O)(=O)c3ccccc3[N+](=O)[O-])CC2)nc2sccn12 | inconclusive [inhibitor, single point] | 
53 | O=C(c1ccc2c(=O)n3c(nc2c1)CCCCC3)N1CCc2ccccc21 | inconclusive [inhibitor, single point] | 
54 | CC(C)C[C@H](NC(=O)[C@H](Cc1ccccc1)NC(=O)c1cnccn1)B(O)O | active: 13.3 nM and active: 4.2 nM | 
55 | O=[N+]([O-])c1cc(/C=N/N2CCOCC2)cs1 |  | inactive: 11.5%
56 | O=C(Nc1ccccc1Sc1ccccc1)c1cnn2c1NC(=C1CC1)C=C2C(F)(F)F | inconclusive [inhibitor, single point] | 
57 | C=CCSc1nc2ccccc2n2cnnc12 | inconclusive [inhibitor, single point] | 
58 | O=C(OCCN1CCOCC1)C1(c2ccccc2)CCCCC1 | inconclusive [inhibitor, partial curve, poor fit] | 
59 | O=C(Cc1ccc(F)cc1)OCn1nnc2ccccc2c1=O | inconclusive [inhibitor, single point] | 
60 | O=C(c1cccn1-c1nnc(N2CCCCC2)s1)N1CCN(c2ccccc2)CC1 | inconclusive [inhibitor, single point] | 
61 | Cc1cc(/C=C(\C#N)C(=O)OCC#N)c(C)n1CC(C)C | inconclusive [inhibitor, single point] | 
62 | COc1cccc(-c2coc3cc4oc(=O)c(CC(=O)O)c(C)c4cc23)c1 |  | inactive: 0.503%
63 | Cc1cc2cc(C)c(NCCNC(=O)c3ccccc3F)nc2cc1C | inconclusive [inhibitor, single point] | 
64 | Cc1ccc(S(=O)(=O)N(C)C)cc1NC(=O)COc1ccccc1C(=O)Nc1ccccc1 | active: 13 µM | 
65 | CC(C)(C)OC(=O)[C@H](Cc1ccccc1)NC(=O)c1nc[nH]c1C(=O)NCc1ccccc1 | inconclusive [inhibitor, single point] | 
66 | Cc1cccc([C@@H]2[C@@H]3C(=O)N(Cc4ccccc4)C(=O)[C@@H]3[C@]3(C)C(=O)N(c4cccc(F)c4)C(=O)N23)c1 | inconclusive [inhibitor, single point] | 
67 | CCS(=O)(=O)c1ccccc1C(=O)N1CCN(c2nc3ccccc3s2)CC1 | inconclusive [inhibitor, single point] | 
68 | Cc1nn(-c2ccccc2)c2nc(N)c(C#N)c(-c3ccc(F)cc3)c12 | active: 18.4 µM | 
69 | C=CCNC(=O)c1onc(CSc2ccc(Cl)cc2)c1C(=O)NCC=C | inconclusive [inhibitor, partial curve] | 
